Data published in the supplement of paper PMC8728848.
Some of the results follow.

What was measured:
Assay in all cases: glycan array binding signal (z-score within array); higher = stronger binding
Conditions in all cases: glycan notation: IUPAC condensed, linker removed
[1] = biological target: Neu5Ac(a2-6)Gal(b1-4)GlcNAc(b1-2)Man(a1-3)[Neu5Ac(a2-3)Gal(b1-4)GlcNAc(b1-2)Man(a1-6)]Man(b1-4)GlcNAc(b1-4)GlcNAc
Summary of the method: (§1)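 The binding signal is a Z-score computed within each array and averaged over linkers. Arrays of the same protein sequence at different concentrations or buffers were also averaged together. Data originate from 3228 arrays in the Consortium for Functional Glycomics database, kept only where the protein sequence was available.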

[2] = biological target: Neu5Ac(a2-6)Gal(b1-4)GlcNAc(b1-2)Man(a1-3)[Neu5Ac(a2-6)Gal(b1-4)GlcNAc(b1-2)Man(a1-6)]Man(b1-4)GlcNAc(b1-4)GlcNAc
Summary of the method: as §1

[3] = biological target: Neu5Ac(a2-6)Gal(b1-4)GlcNAc(b1-2)Man(a1-3)[Neu5Ac(a2-6)Gal(b1-4)GlcNAc(b1-2)Man(a1-6)]Man(b1-4)GlcNAc(b1-4)[Fuc(a1-6)]GlcNAc
Summary of the method: as §1

[4] = biological target: Neu5Ac(a2-6)Gal(b1-4)GlcNAc(b1-2)Man(a1-6)Man(b1-4)GlcNAc(b1-4)GlcNAc
Summary of the method: as §1

[5] = biological target: Neu5Ac(a2-6)Gal(b1-4)GlcNAc(b1-2)Man(a1-6)[Gal(b1-4)GlcNAc(b1-2)Man(a1-3)]Man(b1-4)GlcNAc(b1-4)GlcNAc
Summary of the method: as §1

[6] = biological target: Neu5Ac(a2-6)Gal(b1-4)GlcNAc(b1-2)Man(a1-6)[GlcNAc(b1-2)Man(a1-3)]Man(b1-4)GlcNAc(b1-4)GlcNAc
Summary of the method: as §1

[7] = biological target: Neu5Ac(a2-6)Gal(b1-4)GlcNAc(b1-2)Man(a1-6)[Man(a1-3)]Man(b1-4)GlcNAc(b1-4)GlcNAc
Summary of the method: as §1

[8] = biological target: Neu5Ac(a2-6)Gal(b1-4)GlcNAc(b1-2)[Neu5Ac(a2-6)Gal(b1-4)GlcNAc(b1-4)]Man(a1-3)[GlcNAc(b1-4)][Neu5Ac(a2-6)Gal(b1-4)GlcNAc(b1-2)[Neu5Ac(a2-6)Gal(b1-4)GlcNAc(b1-6)]Man(a1-6)]Man(b1-4)GlcNAc(b1-4)GlcNAc
Summary of the method: as §1

[9] = biological target: Neu5Ac(a2-6)Gal(b1-4)GlcNAc(b1-2)[Neu5Ac(a2-6)Gal(b1-4)GlcNAc(b1-4)]Man(a1-3)[GlcNAc(b1-4)][Neu5Ac(a2-6)Gal(b1-4)GlcNAc(b1-4)Man(a1-6)]Man(b1-4)GlcNAc(b1-4)GlcNAc
Summary of the method: as §1

[10] = biological target: Neu5Ac(a2-6)Gal(b1-4)GlcNAc(b1-2)[Neu5Ac(a2-6)Gal(b1-4)GlcNAc(b1-6)]Man(a1-6)[Neu5Ac(a2-6)Gal(b1-4)GlcNAc(b1-2)Man(a1-3)][GlcNAc(b1-4)]Man(b1-4)GlcNAc(b1-4)GlcNAc
Summary of the method: as §1

[11] = biological target: Neu5Ac(a2-6)Gal(b1-4)GlcNAc(b1-3)Gal(b1-3)GlcNAc
Summary of the method: as §1

[12] = biological target: Neu5Ac(a2-6)Gal(b1-4)GlcNAc(b1-3)Gal(b1-4)GlcNAc
Summary of the method: as §1

[13] = biological target: Neu5Ac(a2-6)Gal(b1-4)GlcNAc(b1-3)Gal(b1-4)GlcNAc(b1-2)Man(a1-3)[Neu5Ac(a2-6)Gal(b1-4)GlcNAc(b1-3)Gal(b1-4)GlcNAc(b1-2)Man(a1-6)]GalNAc
Summary of the method: as §1

[14] = biological target: Neu5Ac(a2-6)Gal(b1-4)GlcNAc(b1-3)Gal(b1-4)GlcNAc(b1-3)Gal(b1-4)GlcNAc
Summary of the method: as §1

[15] = biological target: Neu5Ac(a2-6)Gal(b1-4)GlcNAc(b1-3)Gal(b1-4)GlcNAc(b1-3)Gal(b1-4)GlcNAc(b1-2)Man(a1-3)[Neu5Ac(a2-6)Gal(b1-4)GlcNAc(b1-3)Gal(b1-4)GlcNAc(b1-3)Gal(b1-4)GlcNAc(b1-2)Man(a1-6)]GalNAc
Summary of the method: as §1

[16] = biological target: Neu5Ac(a2-6)Gal(b1-4)GlcNAc(b1-3)Gal(b1-4)GlcNAc(b1-3)GalNAc
Summary of the method: as §1

[17] = biological target: Neu5Ac(a2-6)Gal(b1-4)GlcNAc(b1-3)Gal(b1-4)GlcNAc(b1-3)[Neu5Ac(a2-6)Gal(b1-4)GlcNAc(b1-3)Gal(b1-4)GlcNAc(b1-6)]GalNAc
Summary of the method: as §1

[18] = biological target: Neu5Ac(a2-6)Gal(b1-4)GlcNAc(b1-3)Gal(b1-4)GlcNAc(b1-6)[Gal(b1-3)]GalNAc
Summary of the method: as §1

[19] = biological target: Neu5Ac(a2-6)Gal(b1-4)GlcNAc(b1-3)Gal(b1-4)[Fuc(a1-3)]GlcNAc(b1-3)Gal(b1-4)[Fuc(a1-3)]GlcNAc
Summary of the method: as §1

[20] = biological target: Neu5Ac(a2-6)Gal(b1-4)GlcNAc(b1-3)GalNAc
Summary of the method: as §1

[21] = biological target: Neu5Ac(a2-6)Gal(b1-4)GlcNAc(b1-3)[Neu5Ac(a2-6)Gal(b1-4)GlcNAc(b1-6)]GalNAc
Summary of the method: as §1

[22] = biological target: Neu5Ac(a2-6)Gal(b1-4)GlcNAc(b1-6)GalNAc
Summary of the method: as §1

[23] = biological target: Neu5Ac(a2-6)Gal(b1-4)GlcNAc(b1-6)[Gal(b1-3)GlcNAc(b1-3)]Gal(b1-4)Glc
Summary of the method: as §1

[24] = biological target: Neu5Ac(a2-6)Gal(b1-4)GlcNAc(b1-6)[Gal(b1-3)]GalNAc
Summary of the method: as §1

[25] = biological target: Neu5Ac(a2-6)Gal(b1-4)GlcNAc6S
Summary of the method: as §1

[26] = biological target: Neu5Ac(a2-6)GalNAc
Summary of the method: as §1

[27] = biological target: Neu5Ac(a2-6)GalNAc(b1-4)GlcNAc
Summary of the method: as §1

[28] = biological target: Neu5Ac(a2-6)GalNAc(b1-4)GlcNAc6S
Summary of the method: as §1

[29] = biological target: Neu5Ac(a2-6)GlcNAc(b1-4)GlcNAc
Summary of the method: as §1

[30] = biological target: Neu5Ac(a2-6)GlcNAc(b1-4)GlcNAc(b1-4)GlcNAc
Summary of the method: as §1

B1: Mg3lysM (Mycosphaerella graminicola) (protein)
chain: APQNPPTSCSAAPQPTGTGSPGTVCGSTTFTNYTVKAGDTLGAIAKQYNSGVCDIAKVNGIDNPDYIKPDQVLSIPANCVTPDNTSCVKPVPVITNTCVLGVGSTYTVKSGDSFSAIATSFNITLASLEARNPQIPNYDLIFPGQVINTPLCPNSVCDSIGTYVIESGDIFYNLAQSNNVTVGQLESLNVNVNVTDIHPGDIIILPHNCHNITASA
glycan array binding signal (z-score) [1]: -0.141
glycan array binding signal (z-score) [2]: -0.06
glycan array binding signal (z-score) [3]: -0.051
glycan array binding signal (z-score) [4]: 0.023
glycan array binding signal (z-score) [5]: -0.047
glycan array binding signal (z-score) [6]: -0.101
glycan array binding signal (z-score) [7]: -0.087
glycan array binding signal (z-score) [8]: -0.084
glycan array binding signal (z-score) [9]: -0.074
glycan array binding signal (z-score) [10]: -0.038
glycan array binding signal (z-score) [11]: -0.098
glycan array binding signal (z-score) [12]: -0.116
glycan array binding signal (z-score) [13]: 0.02
glycan array binding signal (z-score) [14]: -0.073
glycan array binding signal (z-score) [15]: 0.091
glycan array binding signal (z-score) [16]: -0.115
glycan array binding signal (z-score) [17]: -0.015
glycan array binding signal (z-score) [18]: 0.12
glycan array binding signal (z-score) [19]: -0.111
glycan array binding signal (z-score) [20]: -0.079
glycan array binding signal (z-score) [21]: 0.067
glycan array binding signal (z-score) [22]: -0.05
glycan array binding signal (z-score) [23]: -0.073
glycan array binding signal (z-score) [24]: 0.04
glycan array binding signal (z-score) [25]: -0.161
glycan array binding signal (z-score) [26]: -0.07
glycan array binding signal (z-score) [27]: -0.074
glycan array binding signal (z-score) [28]: -0.084
glycan array binding signal (z-score) [29]: -0.073
glycan array binding signal (z-score) [30]: 0.02
